# According to a collection of fitness landscapes (doi:10.1016/j.celrep.2020.107928):
# In all, about 81,000 sequences were measured (“one-hybrid fitness for binding NBS DNA”: median about -0.1, highest 2% from about 0.36 on). Some of the results follow.
# B1: Caulobacter ParB omega fusion; a variant is named by its letters at X, in order, B8GW30 (parent)
# chain: MESVVVGEPGMSEGRRGLGRGLSALLGEVDAAPAQAPGEQLGGSREAPIEILQRNPDQPRRTFREEDLEDLSNSIREKGVLQPILVRPSPDTAGEYQIVAGERAWRAAQRAGLKTVPIMVRELDDLAVLEIGIIENVQRADLNVLEEALSYKVLMEKFERTQENIAQTIGKSXSHVANXMRLLXLPDEVQSYLVSGELTAXHARAIAAAADPVALAKQIIEGGLSVRETEALARKAPNLSAGKSKGGRPPRVKDTDTQALESDLSSVLGLDVSIDHRGSTGTLTITYATLEQLDDLCNRLTRGI
# Variants of: B1
# Experiment: one-hybrid fitness for binding NBS DNA (the Noc-binding site; scaled: cognate 1, non-cognate 0); higher = stronger binding
# Settings: with NBS DNA site
# Procedure, shortened: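 Fitness is the rescaled log change in variant-to-wild-type read ratio, measured by Illumina sequencing of plasmids before and after bacterial one-hybrid selection. The scale puts cognate at 1 and non-cognate at 0. Selection of Caulobacter ParB libraries, four specificity codons randomised, took place in E. coli USO with a HIS3 reporter, site 19 bp from the promoter, over 48 hours at 37°C on M9-minus-histidine with 0.1 mM IPTG and 5 mM 3-AT.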
row,Variant,one-hybrid fitness for binding NBS DNA
1,RRSD,≤ 0.2
2,PHHP,≤ 0.2
3,PKCQ,≤ 0.2
4,NSIL,≤ 0.2
5,SICS,≤ 0.2
6,VSPL,≤ 0.2
7,YSHG,≤ 0.2
8,DCRC,≤ 0.2
9,VLRR,≤ 0.2
10,QVKS,0.49
11,EPVK,≤ 0.2
12,GAKK,≤ 0.2
13,HSGT,≤ 0.2
14,EAQS,≤ 0.2
15,PRAV,≤ 0.2
16,CRAG,≤ 0.2
17,LSAK,≤ 0.2
18,FLSC,≤ 0.2
19,CSPS,≤ 0.2
20,IISW,≤ 0.2
21,LPAE,≤ 0.2
22,GTER,≤ 0.2
23,ANTD,≤ 0.2
24,ILPA,≤ 0.2
25,ELSK,≤ 0.2

row,Variant,one-hybrid fitness for binding NBS DNA
1,KIPI,≤ 0.2
2,AIME,≤ 0.2
3,DHPC,≤ 0.2
4,RNKV,≤ 0.2
5,PILW,≤ 0.2
6,PQSY,≤ 0.2
7,CSPI,≤ 0.2
8,PASD,≤ 0.2
9,WNAG,≤ 0.2
10,CQKT,≤ 0.2
11,TCYD,≤ 0.2
12,NDDC,≤ 0.2
13,CHKL,≤ 0.2
14,PVTQ,≤ 0.2
15,DWPT,≤ 0.2
16,KLHT,≤ 0.2
17,GRGC,≤ 0.2
18,WMRT,≤ 0.2
19,YWAS,≤ 0.2
20,AIFG,≤ 0.2
21,ETTV,≤ 0.2
22,LYWL,≤ 0.2
23,NNYY,≤ 0.2
24,HSVR,≤ 0.2
25,TSQY,≤ 0.2

row,Variant,one-hybrid fitness for binding NBS DNA
1,MENG,≤ 0.2
2,DIER,≤ 0.2
3,NLQY,≤ 0.2
4,DAAD,≤ 0.2
5,PGGS,≤ 0.2
6,RLQL,≤ 0.2
7,QKVH,≤ 0.2
8,WYDC,≤ 0.2
9,TERI,≤ 0.2
10,QWTL,≤ 0.2
11,WSTG,≤ 0.2
12,HHWR,≤ 0.2
13,HMHC,≤ 0.2
14,AYMV,≤ 0.2
15,KNKC,≤ 0.2
16,EDQL,≤ 0.2
17,ENAF,≤ 0.2
18,CGKG,≤ 0.2
19,DWPR,≤ 0.2
20,NAVE,≤ 0.2
21,HAYS,≤ 0.2
22,RTWL,≤ 0.2
23,RRRC,0.39
24,RNIG,≤ 0.2
25,TTPA,≤ 0.2

row,Variant,one-hybrid fitness for binding NBS DNA
1,LGRF,≤ 0.2
2,QSKI,0.314
3,QVYW,≤ 0.2
4,NQKR,≤ 0.2
5,AAAV,≤ 0.2
6,PCYR,≤ 0.2
7,EMYR,≤ 0.2
8,FPWS,≤ 0.2
9,ALVV,≤ 0.2
10,RERQ,≤ 0.2
11,SNLW,≤ 0.2
12,APQT,≤ 0.2
13,QVDS,≤ 0.2
14,QGAT,≤ 0.2
15,YRPT,≤ 0.2
16,EDQC,≤ 0.2
17,PWRP,≤ 0.2
18,MCFS,≤ 0.2
19,LFHT,≤ 0.2
20,DELH,≤ 0.2
21,DPSL,≤ 0.2
22,NLFK,≤ 0.2
23,TPKR,0.351
24,EIES,≤ 0.2
25,MPES,≤ 0.2

row,Variant,one-hybrid fitness for binding NBS DNA
1,VHKT,≤ 0.2
2,TCRW,≤ 0.2
3,WFIS,≤ 0.2
4,HLDN,≤ 0.2
5,NHSN,≤ 0.2
6,EHMR,≤ 0.2
7,CPSG,≤ 0.2
8,GPNW,≤ 0.2
9,SQNE,≤ 0.2
10,ALLW,≤ 0.2
11,FCIC,≤ 0.2
12,KFPT,≤ 0.2
13,QIIA,≤ 0.2
14,KRGY,≤ 0.2
15,NKKC,≤ 0.2
16,ASIN,≤ 0.2
17,AIDS,≤ 0.2
18,WFHG,≤ 0.2
19,AVFN,≤ 0.2
20,TIPC,≤ 0.2
21,QQNW,≤ 0.2
22,GPNH,≤ 0.2
23,VVHL,≤ 0.2
24,VAGL,≤ 0.2
25,PPVT,≤ 0.2

row,Variant,one-hybrid fitness for binding NBS DNA
1,RCFH,≤ 0.2
2,ENTK,≤ 0.2
3,QPSV,≤ 0.2
4,MLMY,≤ 0.2
5,NYKT,≤ 0.2
6,GQHI,≤ 0.2
7,RPDT,≤ 0.2
8,PHQI,≤ 0.2
9,LASL,≤ 0.2
10,RMQY,≤ 0.2
11,DPCS,≤ 0.2
12,KWMS,≤ 0.2
13,AYMK,≤ 0.2
14,RSFH,≤ 0.2
15,MEIG,≤ 0.2
16,EIYF,≤ 0.2
17,DLCT,≤ 0.2
18,TSEW,≤ 0.2
19,WGET,≤ 0.2
20,QNFL,≤ 0.2
21,MSNC,≤ 0.2
22,PMTV,≤ 0.2
23,RAAP,≤ 0.2
24,QTIP,≤ 0.2
25,SRNM,≤ 0.2

row,Variant,one-hybrid fitness for binding NBS DNA
1,GYHT,≤ 0.2
2,NITI,≤ 0.2
3,VNGS,≤ 0.2
4,RNAE,≤ 0.2
5,ARDE,≤ 0.2
6,SRRT,0.255
7,ENND,≤ 0.2
8,DNQM,≤ 0.2
9,PGRA,≤ 0.2
10,RNIH,≤ 0.2
11,VPHG,≤ 0.2
12,GNYY,≤ 0.2
13,WNSI,≤ 0.2
14,LQIR,≤ 0.2
15,MWYS,≤ 0.2
16,AETN,≤ 0.2
17,GTKC,≤ 0.2
18,VSPY,≤ 0.2
19,AHSW,≤ 0.2
20,GLWL,≤ 0.2
21,VTNE,≤ 0.2
22,TLHQ,≤ 0.2
23,CTFS,≤ 0.2
24,RTDN,≤ 0.2
25,PNFF,≤ 0.2

row,Variant,one-hybrid fitness for binding NBS DNA
1,RLPV,≤ 0.2
2,SKTG,≤ 0.2
3,NWHR,≤ 0.2
4,GAKE,≤ 0.2
5,AMEY,≤ 0.2
6,YCLG,≤ 0.2
7,TRHI,≤ 0.2
8,QNAG,≤ 0.2
9,TELP,≤ 0.2
10,EINT,≤ 0.2
11,QPKM,≤ 0.2
12,TSLC,≤ 0.2
13,RHYM,≤ 0.2
14,YLYT,≤ 0.2
15,RMQD,≤ 0.2
16,KIRT,≤ 0.2
17,PRCR,≤ 0.2
18,MNTM,≤ 0.2
19,CTDF,≤ 0.2
20,YSEV,≤ 0.2
